The results in this text go back to PubChem BioAssay AID485344 (National Center for Advancing Translational Sciences (NCATS), 2010).

Out of some 340,000 compounds screened, about 6,900 (2%) were called active. Cut-off read from the data, not from the text of the source: active = inhibition above about 30%; inactive = below that, where a call was filed. The list shows a part of the results, in another mix than the full data. The source gives no active or inactive call for entries shown without one.

In the experiment the target is D(2) dopamine receptor (Homo sapiens) (UniProt P14416). The experiment is described as follows: HTS Assay for Allosteric Antagonists of the Human D2 Dopamine Receptor: Primary Screen for Antagonists. Note: 0% is about no effect. The following applies: HEK293 TREx D2 cells, calcium flux, dopamine EC80; at 10 µM; stronger effect = higher value. Put shortly: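 Tetracycline-induced HEK293 TREx cells expressing D2 receptor forced-coupled to calcium signalling, loaded with no-wash calcium dye. Compounds added and calcium flux read 180 s, then dopamine added at EC80 and read a further 180 s.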
Chain of UniProt P14416 (P14416 whole entry, looked up): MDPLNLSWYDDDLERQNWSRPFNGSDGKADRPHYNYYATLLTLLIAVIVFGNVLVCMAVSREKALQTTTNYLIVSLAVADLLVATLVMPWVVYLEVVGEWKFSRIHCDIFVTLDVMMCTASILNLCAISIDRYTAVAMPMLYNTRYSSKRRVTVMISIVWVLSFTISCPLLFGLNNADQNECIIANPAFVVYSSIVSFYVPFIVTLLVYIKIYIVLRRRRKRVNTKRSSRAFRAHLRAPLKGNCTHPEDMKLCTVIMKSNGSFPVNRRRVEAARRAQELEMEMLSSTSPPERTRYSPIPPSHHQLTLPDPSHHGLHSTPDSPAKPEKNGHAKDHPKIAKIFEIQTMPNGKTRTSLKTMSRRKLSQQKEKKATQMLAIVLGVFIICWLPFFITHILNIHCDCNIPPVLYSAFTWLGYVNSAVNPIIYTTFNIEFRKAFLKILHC
(In general: Calcium flux is commonly read through the fluorescence of an indicator in the cells.)
By inhibition is commonly meant the drop in the measured response relative to a control, in per cent. `CCOC(=O)C1CCN(S(=O)(=O)c2ccc3c(c2)NC(=O)C(C)C(=O)N3)CC1` (centres undefined): the inhibition was 23.1%. For `O=S(=O)(c1ccc2nc(COc3ccc(Cl)cc3Cl)[nH]c2c1)N1CCOCC1` the value was active: 38.3%; for `CCOC(=O)c1cc(-c2ccc(C)cc2)n(CCC(=O)Nc2ccc(OC)c(OC)c2)c1C`, -6.9%; for `COCCCNC(=O)Cn1cnc2sc(C)c(S(=O)(=O)N3CCN(c4ccccc4OC)CC3)c2c1=O`, 7.35%. For `CCN1CCN(C(=O)c2ccc3c(c2)N(Cc2cccc(F)c2)C(=O)c2ccccc2S3)CC1` the value was -11.7%; for `CCCCCN1C(C(=O)c2ccccc2)=C(NC(=O)c2ccccc2Cl)c2ccccc2S1(=O)=O`, -9.66%. For `COc1ccc(CCNC(=O)c2ccc3c(c2)N(Cc2ccc(Cl)cc2)CCS3)c(OC)c1` the value was 2.96%; for `Cc1cccc(-c2nc(SCC(=O)Nc3ccc4c(c3)OCO4)c(-c3ccccc3)[nH]2)c1`, 10.4%. With `O=C(CCn1c(=O)c2cccn2c2cccnc21)N1CCN(c2cccc(Cl)c2)CC1`, the inhibition was -8.56%. With `CN1C(=O)Cc2cc(S(=O)(=O)NCCc3ccccc3)ccc21`, the inhibition is 2.96%. For `COc1ccc(NC(=O)C2CCCN2S(=O)(=O)c2ccc3nc(-c4ccccc4)[nH]c3c2)cc1` (centres undefined) the value was 15.4%.

Regarding `CCN(CC)CCNC(=O)C1c2cc(OC)c(OC)cc2C(=O)N(C)C1c1cccs1` (centres undefined), the inhibition is active: 35.1%. With `CC(C)CCSc1nc2c(c(=O)[nH]c(=O)n2C)n1CCCc1ccccc1`, the inhibition was active: 35.3%. In the case of `O=C(Cn1c(=O)oc2cc(S(=O)(=O)NC3CCCC3)ccc21)Nc1ccc(F)c(F)c1` it was -1.85%. In the case of `Cc1ccc(Cl)cc1N1CCN(S(=O)(=O)c2cc3[nH]c(=O)c(=O)[nH]c3cc2C)CC1` it was -16%; in that of `CCOc1ccccc1NC(=O)Cn1nnc(C(=O)Nc2ccc(C)c(C)c2)c1N`, 7.33%.

`Cc1c(C(=O)N2CCC(C)CC2)c(S(=O)(=O)N2CCN(c3ccc(Cl)cc3)CC2)c(C)n1C`: the inhibition is -11.5%.

Turning to `Cc1ccc(Cl)cc1N1CCN(C(=O)C2CCN(Cc3nc(-c4ccc(Cl)cc4)oc3C)CC2)CC1`, the inhibition turned out to be 5.38%. Consider `CC(C)(C)OC(=O)N1CCC(c2c(C(=O)NC3CCCCC3)cnn2-c2cccc(Cl)c2)CC1`, for which the inhibition was found to be 2.56%.

As to `Cn1nccc1C(=O)NCc1ccc2c(c1)CCN2C(=O)c1ccccc1`, the inhibition was 12.1%. Turning to `COc1ccc(-c2nc3sc(CCNC(=O)C(=O)Nc4c(C)cccc4C)c(C)n3n2)cc1`, the inhibition was found to be 6.28%. In the case of `CC1CCCN(CCCNC(=O)CN2C(=O)CSc3ccc(S(=O)(=O)N4CCOCC4)cc32)C1` (centres undefined) it was 11.2%. For `COc1ccc(N2CCN(C(=O)c3oc4ccccc4c3NC(=O)c3ccccc3OC)CC2)cc1` the value was -13.8%; for `CCOC(=O)c1ccc(NC(=O)CN2C(=O)COc3ccc(Cl)cc32)cc1`, 12.3%; for `CC1=C(C(=O)OC2CCCC2)C(c2ccccc2Cl)CC(=O)N1` (centres undefined), 1.95%. In the case of `Cc1cccc(N2CCN(C3(c4ccccc4)C(=O)c4ccccc4C3=O)CC2C)c1` (centres undefined) it was 13.9%. For `O=C(CCN1CCN(c2ccccn2)CC1)Nc1ccc(F)cc1`, the inhibition was active: 67.4%. In the case of `Cc1ccc(C(c2sc3nc(-c4ccco4)nn3c2O)N2CCN(Cc3ccccc3)CC2)cc1` (centres undefined), the inhibition was -21.5%. For `COc1ccccc1CNC(=O)c1cnn2c(C)c(Cc3ccc(F)cc3)c(C)nc12` the value was -26.3%; for `COc1cccc(C2CC(=O)Nc3c2c(=O)nc2c(C)cccn32)c1OC` (centres undefined), 3.86%. As for `Cc1ccc(-c2nc3cc(Cl)ccc3o2)cc1NC(=O)COc1ccc(F)cc1`, the inhibition is -20.2%. In the case of `CCOc1ccc(NC(=O)Cn2c(=O)n(CCC(=O)NCCc3ccccc3)c(=O)c3ccccc32)cc1` it was -2.7%; in that of `CCOc1ccc(NC(=O)CC2C(=O)N(c3cccc(C)c3)C(=O)N2Cc2cccnc2)cc1` (centres undefined), 10.7%. For `CCCn1cc(S(=O)(=O)c2ccc(CC)cc2)c(=O)c2ccccc21` the value was -11.2%; for `Cc1ccc(N(C)C(=O)C2CCCN(c3ncnc4c3nc3n4CCCCC3)C2)cc1C` (centres undefined), 25.4%; for `Cc1ccc2occ(-c3cc(-c4ccc(Cl)cc4)nc4c3COc3ccccc3-4)c(=O)c2c1`, 10.4%. In the case of `CCCCc1nn2c(=O)cc(COC(=O)c3ccc(NC(=O)C4CCCCC4)cc3)nc2s1` it was -3.04%; in that of `Cc1ccc(Cn2c(=O)n(Cc3ccccc3Cl)c(=O)c3ccccc32)cc1`, -3.65%; in that of `CCOCCc1nn2c(=O)cc(COC(=O)C(CC)c3ccccc3)nc2s1` (centres undefined), 2%.

For the compound `Cc1ccc([N+](=O)[O-])c(OCCN2CCc3ccccc3C2)c1`, the inhibition was active: 88%. With `Cc1nnc(N2CCN(c3ccccc3F)CC2)c2c1nnn2Cc1ccccc1`, the inhibition is -0.127%. For the compound `COc1ccc(NC(=O)CCn2cccn2)cc1OC`, the inhibition came out at 8.71%.

Turning to `CCOC(=O)Cn1c(=O)n(-c2ccccc2OC)c2nc(-c3ccccc3C)nc(C(N)=O)c21`, the inhibition amounted to 8.83%. For the compound `O=C(COc1ccccc1)Nc1ccccc1C(=O)OCc1cc(=O)n2nc(C3CC3)sc2n1`, the inhibition was found to be 3.36%.

In the case of `COC(=O)CC1Oc2ccccc2-n2cc(-c3ccc(Cl)cc3)nc21` (centres undefined), the inhibition turned out to be 1.66%. For `Cc1ccccc1C(=O)Nc1nnc(S(=O)(=O)N2CCCCCC2)s1` the value was 0.598%; for `Cc1ccc(Cl)cc1N1CCN(C(=O)C2CCN(Cc3nc(-c4cccc(Cl)c4)oc3C)CC2)CC1`, -10.2%.

`CCc1nn2c(=O)cc(COC(=O)C(c3ccccc3)c3ccccc3)nc2s1`: the inhibition is -16.2%. In the case of `Cc1cccc(-c2nc(SCC(=O)Nc3ccc4c(c3)OCCO4)c(-c3ccccc3)[nH]2)c1`, the inhibition amounted to 22.1%. Turning to `COc1ccc(-n2nc(C(=O)NCCc3cccc(C)c3)c3c4ccccc4n(C)c3c2=O)cc1Cl`, the inhibition was -20%.

Take `CCOC(=O)c1ccc(Nc2cc(-c3ccccc3)nc(C)n2)cc1`: the inhibition was -4.38%. In the case of `Cc1cc(C)cc(N(CC(=O)NCc2ccccc2Cl)S(=O)(=O)c2c(C)noc2C)c1` it was 10.3%. For `Cn1c(CCNC(=O)c2ccco2)nc2cc(NC(=O)COc3ccc(Cl)cc3)ccc21` the value was 6.91%; for `O=C(CSc1nc(=O)[nH]c2c1CCC2)NCc1ccccc1`, 8.33%; for `O=C(NCc1ccccc1CN1CCCC1)c1cc2cc(Cl)ccc2o1`, active: 39.9%. Turning to `CCOC(=O)N1CCC(NC(=O)C2CCN(S(=O)(=O)c3cccc4cccnc34)CC2)CC1`, the inhibition was active: 51.2%. In the case of `Cc1ccc(C(=O)COC(=O)CCC(=O)Nc2ccc(Oc3ccccc3)cc2)cc1C` it was -6.65%. As for `Oc1c(C(c2ccccc2)N2CCN(c3ccccc3)CC2)sc2nc(-c3ccco3)nn12` (centres undefined), the inhibition was -24.4%. Consider `O=C(NCCc1ccccc1)C(=O)Nc1cccc(Br)c1`, for which the inhibition was 0.585%. As to `Cc1cccc(NC(=O)CSc2cc(C)c3ccccc3n2)c1`, the inhibition is 21.8%. On to `COc1ccc(N2CCN(C(=O)Nc3cccc(C(F)(F)F)c3)CC2)cc1`, for which the inhibition is -0.0737%. Consider `CCc1ccccc1NC(=O)Cc1c(C(=O)O)[nH]c2ccc(Cl)cc12`, for which the inhibition stood at 8.12%. For `Cc1ccc(Cn2c(CNC(=O)c3ccccc3Br)nc3cccnc32)cc1` the value was 17.3%.

With `CC(C)CNC(=O)C1=CC(c2ccc3c(c2)OCO3)=NS(=O)(=O)N1C`, the inhibition was -10.3%.

For `Cc1ccc(-n2c(=O)c3oc4ccccc4c3n(CC(=O)Nc3ccccc3)c2=O)cc1C`, the inhibition came out at 3.49%.

Turning to `CCc1ccc(C2c3c(oc4ccc(C)cc4c3=O)C(=O)N2c2nc(C)c(C)s2)cc1` (centres undefined), the inhibition is 4.48%. For `COc1ccc(-c2cc(C(F)(F)F)nc(SCCC(=O)Nc3c(C)cccc3C)n2)cc1` the value was -0.564%; for `COc1cccc(-c2ccc3c(N)c(C(=O)Nc4ccc(C)c(F)c4)sc3n2)c1`, -3.14%. On to `COc1cc(NC(=O)Cn2cc(S(=O)(=O)c3ccccc3)c(=O)c3ccccc32)cc(OC)c1`, for which the inhibition was -1.22%. `CNC(=O)COc1ccc(Nc2nnc(-c3ccc(C)c(S(=O)(=O)NC(C)(C)C)c3)c3ccccc23)cc1`: the inhibition came to 9.76%. For `COc1ccc(-c2onc(C)c2C)cc1S(=O)(=O)NC1CCC(C)CC1` (centres undefined) the value was -3.82%. Take `Cc1ccc(OCC(=O)Nc2ccc(C(=O)OCc3cc(=O)n4c(C)csc4n3)cc2)cc1`: the inhibition amounted to 10.1%.

Turning to `O=C(Nc1ccc(F)cc1F)c1ccc(-n2cnnc2)cc1`, the inhibition is 24.9%.

Turning to `O=C(NCC12CC3CC(CC(C3)C1)C2)c1cc2nc(-c3ccc(F)cc3)cc(C(F)(F)F)n2n1`, the inhibition was -4.58%.

With `COc1ccccc1N1CCN(C(CNC(=O)C(=O)NCCc2ccccc2)c2cccnc2)CC1` (centres undefined), the inhibition worked out at 10.2%. For `O=C(NCCc1ccccc1)c1cc(Sc2ccc(F)cc2F)nc2ccccc12` the value was 3.88%; for `COc1cccc(OCc2nc3ccccc3n2CCOc2cccc(C)c2)c1`, -2.07%; for `CCC(C(=O)Nc1ccc(C(C)=O)cc1)n1c(C)c2cnn(-c3ccccc3)c(=O)c2c1C` (centres undefined), 9.1%. As to `Cn1c(=O)c2c(nc(SCC(=O)Nc3ccc(F)cc3)n2Cc2ccccc2)n(C)c1=O`, the inhibition is -1.66%. In the case of `COc1ccc(NS(=O)(=O)c2ccc3[nH]c4c(c3c2)CCCCCC4)cc1` it was -8.72%; in that of `Fc1ccc(CNc2nc(-c3ccccc3)cc(C(F)(F)F)n2)cc1`, -1.39%. `Cn1ccnc1SCC(=O)Nc1cc(Cl)ccc1Cl`: the inhibition was -16.7%. For `CCN(CC)c1ccc(C2C(C(N)=O)=C(C)Nc3ncnn32)cc1` (centres undefined) the value was -12.8%; for `CCCCNC(=O)CCc1c(C)nc2c(c(C)nn2-c2ccccc2)c1C`, 5.56%. For `Cc1ccc(NC(=O)C2CCCN2S(=O)(=O)c2cccc3cccnc23)cc1C` (centres undefined), the inhibition is -4.69%. In the case of `CC(C)C(=O)OCc1cc(=O)n2nc(C3CCCCC3)sc2n1` it was 2.49%.

For the compound `COCCNc1ncnc2c1c(-c1ccccc1)cn2-c1cccc(Cl)c1`, the inhibition was -4.05%. For `CCc1ccc(NCc2cc3cc4c(cc3n(CC(=O)Nc3ccc(F)cc3)c2=O)OCCO4)cc1`, the inhibition is -26.5%. For `COc1ccc(CNC(=O)C2CCN(S(=O)(=O)c3cccc4nonc34)CC2)cc1OC` the value was 3.59%. In the case of `O=C1CC(c2ccc(Cl)cc2)N=C(NC(=O)c2ccccc2)N1` (centres undefined) it was -3.4%; in that of `Cc1ccc(NC(=O)Cn2c(=O)ccc3cc(S(=O)(=O)N4CCC(C)CC4)ccc32)cc1Cl`, -9.3%. In the case of `Cc1ccc(C)c(NC(=O)c2cc(=O)c3cc(C)cc(C)c3o2)c1` it was -9.05%; in that of `COc1cccc(NC(=O)CCNC(=O)Cn2ccc3ccccc3c2=O)c1`, 2.41%; in that of `O=C(CSc1ccccc1)Nc1cc(Cl)ccc1Oc1ccccc1`, active: 41.8%.
